Several values for one entry are separate records, joined by “and”; a condition that tells them apart may be missing. Equal values may be shown once. The inconclusive results got no clear call from the source; some entries with a clear call stand among them for comparison. Potencies beside an inconclusive call are fits to weak or partial responses and may not hold up. Where a structure was tested more than once in an assay, its records may differ in their call. Activity calls are given as the source filed them. Calls follow the shape of the dose curve; as a rule, active = well fitted curve in the direction sought with a large enough effect; inconclusive = small, poorly fitted or top-dose-only effect, or another doubt; inactive = no such curve, though single readings can be large; an effect the other way counts as inactive or inconclusive.
Experiments:
[1] = qHTS for Inhibitors of Plasmodium falciparum (DD2) proliferation (AID 504314);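 as to activity, negative = inhibition: parasite DNA measured by SYBR Green fluorescence after red cell lysis; plate controls were DMSO vehicle for no effect and artemisinin wells for full effect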; conditions: P. falciparum Dd2 in erythrocytes, SYBR Green growth, 72 h; activity, negative = inhibition: at 6.11 µM (top of the series)
How it was run: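 Fluorescence read-out (ex 485/em 535 nm) of SYBR Green-stained parasite DNA quantifies intraerythrocytic growth. Cultures at 0.3% parasitemia and 2.5% hematocrit were treated for 72 h; data normalized to DMSO and 0.29 uM artemisinin wells.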

[2] = qHTS for Inhibitors of Plasmodium falciparum (7G8) proliferation (AID 504316); also: nearly all actives have a fitted effect of over 65% in size;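 as to activity change, negative = inhibition: 0% = DMSO vehicle and -100% = 0.29 µM artemisinin full kill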; conditions: P. falciparum 7G8 in erythrocytes, SYBR Green DNA, 72 h; activity change, negative = inhibition: at 6.7 µM (top of the series)
How it was run: (§1)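 Erythrocytes infected with P. falciparum line (0.3% parasitemia, 2.5% hematocrit final) incubated with compounds 72 h at 37 °C, 5% CO2; SYBR Green lysis buffer added, fluorescence read next day. Normalized to 0.29 uM artemisinin and DMSO.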

[3] = qHTS for Inhibitors of Plasmodium falciparum (CP250) proliferation (AID 504320);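 as to activity change, negative = inhibition: plate controls were DMSO vehicle for no effect and 0.29 µM artemisinin control for full effect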
How it was run: as §1

[4] = qHTS for Inhibitors of Plasmodium falciparum (HB3) proliferation (AID 504318); also: nearly all actives have a fitted effect of over 60% in size;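 as to activity change, negative = inhibition: 0% = DMSO vehicle and -100% = artemisinin control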; conditions: P. falciparum HB3 in erythrocytes, SYBR Green DNA, 72 h; activity change, negative = inhibition: at 7.21 µM (top of the series)
How it was run: as §1
Potency is read from the fitted curve at half-maximal effect; tags tell the direction and shape of the fitted curve.

SMILES | Potency [1] | Potency [2] | Potency [3] | activity, negative = inhibition [1] | Potency [4]
O=c1oc2ccccc2c2c1[C@H]1O[C@](c3ccsc3)(Cc3ccccc31)O2 | inconclusive: 0.0067 µM [activator, full curve, poor fit] | inconclusive: 4.26 µM [inhibitor, single point] | inactive | – | –
COC(=O)C1=C(C(=O)OC)[C@@H]2N(C)c3ccccc3[C@@]23C[C@@H](C(=O)OC)N(C(=O)CC(C)C)C3=N1 | – | – | – | inactive: 0.221% [at 1.12 µM] | inactive
CCC(=O)C[C@@H](NC(=O)OC)c1ccccc1 | inactive | – | – | – | inactive
C#CCCOC(=O)N1C2=NC3=C(C(=O)N(Cc4ccc5c(c4)OCO5)C3=O)C3N(C)c4ccccc4[C@]23C[C@H]1CO (stereo not given in full) | inconclusive: 4.24 µM [inhibitor, single point] | inconclusive: 3.01 µM [inhibitor, single point] | inactive | – | inconclusive: 1.9 µM [inhibitor, single point]
N#Cc1ccc2c(c1)C[C@]1(c3ccsc3)OC3=C(C(=O)OC4(CCCCC4)C3)[C@H]2O1 | inconclusive: 4.24 µM [inhibitor, single point] | – | – | – | inactive
COCOc1cc(OC)ccc1C(=O)C=Cc1ccc([N+](=O)[O-])cc1 | active: 1.5 µM | inconclusive: 3.79 µM [inhibitor, single point] | inconclusive: 4260 nM [inhibitor, single point] | – | inconclusive: 2.39 µM [inhibitor, single point]
COc1ccc([C@]23Cc4cc(C#N)ccc4[C@H](O2)c2c(c4ccc(OC)cc4oc2=O)O3)cc1 | inconclusive: 3.78 µM [inhibitor, single point] | active: 1.69 µM | inactive | – | inconclusive: 3.29 µM [inhibitor, single point]
CCCCC1=CC2=C(c3ccco3)C(=O)C(C)(OC(=O)c3ccc(OC)cc3)C(=O)C2=CN1CCCN(CC)CC (stereo not given) | inactive | – | – | – | inactive
COC(=O)C(=Cc1cc(Br)c(OC)c(Br)c1)C(=O)OC | inactive | – | – | – | inconclusive: 0.0043 µM [activator, full curve, poor fit]
C=CCN1C=C2C(=O)C(C)(OC(=O)c3cccs3)C(=O)C=C2C=C1CCCC(=O)OC (stereo not given) | inconclusive: 0.927 µM [inhibitor, partial curve, poor fit] | – | – | – | inactive
COc1cc(O)c(C(=O)C=Cc2ccc3c(c2)OCO3)c(OC)c1 | inactive | – | – | – | inactive
CC(=O)OC[C@H]1O[C@H](CC=NOC[C@@H](O)[C@H]2O[C@@H]3OC(C)(C)O[C@H]3[C@@H]2O)C=C[C@H]1OC(C)=O | inactive | – | – | – | inactive
C[C@H](NC(=O)N1CCc2nc(-c3ccccc3)c3c(c2C1)CO[C@@H](C)C3)c1ccccc1 | inconclusive: 0.753 µM [inhibitor, full curve, poor fit] | inconclusive: 1.69 µM [inhibitor, partial curve] and inconclusive: 1.69 µM [inhibitor, partial curve, poor fit] | inconclusive: 1 nM [activator] | – | inconclusive: 1.31 µM [inhibitor, partial curve] and inconclusive: 3.79 µM [inhibitor, single point]
CC1(OC(=O)C2CCCC2)C(=O)C=C2C=C(c3ccsc3)N(Cc3ccccc3)C=C2C1=O (stereo not given) | inconclusive: 1.89 µM [inhibitor, partial curve] and inconclusive: 185 nM [inhibitor, partial curve, poor fit] | – | – | – | inconclusive: 1.51 µM [inhibitor, partial curve] and inconclusive: 4.26 µM [inhibitor, single point]
O=C1OC2(CCCCC2)CC2=C1[C@H]1O[C@](CCCCN3C(=O)c4ccccc4C3=O)(Cc3ccccc31)O2 | active: 1.5 µM | active: 1.69 µM | inconclusive: 3010 nM [inhibitor, single point] | – | active: 1.9 µM
C[C@H]1Cc2c(COc3ccccc3)nc3c(c2CO1)CN(C(=O)c1cccnc1)CC3 | inconclusive: 0.0004 µM [inhibitor] | inconclusive: 4.26 µM [inhibitor, single point] and inactive | inconclusive: 2130 nM [inhibitor, partial curve, poor fit] | – | inconclusive: 2.24 µM [inhibitor, single point]
